The chains are these.
T1: UNK ZnF1-3 (human, UniProt Q9C0B0 31-174)
T1 sequence: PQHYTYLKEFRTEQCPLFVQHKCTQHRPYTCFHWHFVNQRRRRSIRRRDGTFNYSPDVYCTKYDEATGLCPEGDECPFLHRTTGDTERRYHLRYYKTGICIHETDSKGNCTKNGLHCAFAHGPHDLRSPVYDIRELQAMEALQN

B1: 104650277_104654612_1041_CDS_ENSMUSG00000025133_ENSMUST00000026126|mouse|control|control (ssRNA)
RNA: GGGAGUUCUACAGUCCGACGAUCCUGCUCCAAGAAAUGAGAGCUAACUUGCUCCAUCGAGCCCAAUAGCUUUGCAGCUUGAACACGAACCACCCAGGAGCCAUCACUGACCAUGUGGCAAAUUUUUCCAAAUGCAUCAUCAACCAACAGAGGAUUGAGCAUCA
B2: chr5:21408736:21408737:-_ENSMUSG00000042453_ENSMUST00000161356|mus_hu|mus_mus_mus_hu_False|58_58 (ssRNA)
RNA: GGGAGUUCUACAGUCCGACGAUCGUUGACAGAGUUGUAGAUGGUGGCUUCAUGGAACUGGAAAGGGGAGCAGCCAAUGCUAUUGGAAGAGGAAGGAAGGCACUGGGUCUGUACGAGCUGCCAGGAAUCCGAUCUUGCAUCCUUCAACAGAGGAUUGAGCAUCA
B3: 50152517_50153095_583_3pUTR_ENSG00000139644_ENST00000395006|human|control|control (ssRNA)
RNA: GGGAGUUCUACAGUCCGACGAUCUCUUGAUCUCCAUGUUCGGCCUUUUCAAUAAUGAGUUGAGUAUCAAAAAGGACGAAGCCACACAUGACCACCAGUCCCACAUACAGGUUUGCCUGGAAAAGCCAAAUGGAUCCAAAGAAACAACAGAGGAUUGAGCAUCA
B4: chr10:75830775:75830776:+_ENSG00000035403_ENST00000372755|perfect_dup|FALSE|FALSE (ssRNA)
RNA: GGGAGUUCUACAGUCCGACGAUCCAUAGUUUCCACUACCUCUGCCACUGUAAGAUAUUCCAAAAUUCCUUUGCAAACCCUAAUAAUUUUACGAACCUCAGCCUCAUCGAAGGUAAGCAGUAGGUCAGAUGUGCCAGAAAGGAUCAACAGAGGAUUGAGCAUCA
B5: chr1:120316058:120316059:+_ENSMUSG00000064302_ENSMUST00000049404|mus_hu|motif|central (ssRNA)
RNA: GGGAGUUCUACAGUCCGACGAUCCACCAUGUGUGUCUGAAGAGCAGCUGGUAGGAUAUUAAAAGUCCAAUUUAAAUAACGGGUAGGAGAUAAAGGAGUGAGUGGCAGAGUGAUGUUCUACUACUGGGUCUGAAAUACUUCAUACAACAGAGGAUUGAGCAUCA
B6: chr5:132203191:132203192:+_ENSG00000164405_ENST00000378667|hu_hu|FALSE|FALSE (ssRNA)
RNA: GGGAGUUCUACAGUCCGACGAUCAUUCUUCCUCUUGGAUCUCUCGAACUCUUCAGUCCCCCAUGUGUAGAUAAGAUAAAACACUACAAACUGCGGCACCACGCGAAAGAAAGACUCCCGAAUGCGGCGCAGAACAUUGGGGAUCAACAGAGGAUUGAGCAUCA
B7: 26019306_26019426_1933_ncRNA_ENSMUSG00000025730_ENSMUST00000166619|mouse|control|control (ssRNA)
RNA: GGGAGUUCUACAGUCCGACGAUCGGCAGUUCCCACAACCAUAGCCCCGUCCCUCCCUACAGGCAUUGACUCAAUCUCCCAGAACAGCAGGCUGGCGCAGCGUCUACCAGUGCCCUAGUAACAUCCAUGGUAAGAUGAUCUUAGCAACAGAGGAUUGAGCAUCA
B8: chr1:121469438:121469439:-_ENSMUSG00000026383_ENSMUST00000052404|mus_mus|FALSE|FALSE (ssRNA)
RNA: GGGAGUUCUACAGUCCGACGAUCCUGGCUGUUGACAUUAAUGUCAAUGGUAGGUCGAAGAGAUGGCAAGAUAGUCUGCUCUGUUUCAAGCUGUUUAAGCUUCUCUGUGUCAUCCUUUAAUGUCUCACAUUCAGCUUUGAAUUCCAACAGAGGAUUGAGCAUCA
B9: chr19:58870598:58870599:-_ENSMUSG00000025092_ENSMUST00000066285|mus_hu|motif|central (ssRNA)
RNA: GGGAGUUCUACAGUCCGACGAUCAUCUUUGACUAAUAAUGCAUUCUGACUCCUGUUUACAUUGGUGCAUGCGAUUCUUUGCGGCCCUGGCAAUUAACCAGACCUGGACUCUAAAAGCUAAACUUGGUCUAAAUAACAUUCUAACAACAGAGGAUUGAGCAUCA
B10: chr20:35282059:35282060:-_ENSG00000101079_ENST00000349004|hu_mus|FALSE|FALSE (ssRNA)
RNA: GGGAGUUCUACAGUCCGACGAUCGCUGGUCACAGACCUGCUAAAGGGACUUUCUCCAGAGCCAAUGCUACUUGAGGUGGAGUGGGUUCGUGAUCGGGCGAGCCGGGUCAUGCUGGCAGAUGGUAUGUAGCCCAUUCCCUGCAACAACAGAGGAUUGAGCAUCA
B11: chr7:65705475:65705476:+_ENSG00000169902_ENST00000304842|hu_hu|hu_hu_hu_mus_True|68_98 (ssRNA)
RNA: GGGAGUUCUACAGUCCGACGAUCUCUAUUCGGUGAUGGCAUUCCAUGGCAUGCUGGCCCAGGUAAAACACAGUCACAGAACUAAUCACCAGACACGCCAAGAGUAAGUUCUGCUUCAGCUUCCCAACCAUCUUGAUGUGGUUACAACAGAGGAUUGAGCAUCA
B12: chr7:30656748:30656749:+_ENSG00000106105_ENST00000389266|hu_hu|motif|central (ssRNA)
RNA: GGGAGUUCUACAGUCCGACGAUCAUCUGGAGAUAUUCCAACCUUCGUGAGGUAGAGGUAGAUGCGGCCAAUGAAAUAGCCGGAUACUGUGUUAUUAAUCACACCCUGUUCAACAGCAUCUCCCAGGCGCAUUUUCCGAGCGGACAACAGAGGAUUGAGCAUCA
B13: 116110112_116112142_1374_CDS_ENSMUSG00000020780_ENSMUST00000021133|mouse|control|control (ssRNA)
RNA: GGGAGUUCUACAGUCCGACGAUCAGGAAGCUGCAGCAAUUCCACCAGAUUCUGCAGAAUGAUGUCAUAGAGCCGGAUGAGGUCCUGAGGCCUGGGAGAGCGCUUGCUGUCAUCUUCCGGCUGCUGCUGCAGCAGAGCCCUGUGCAACAGAGGAUUGAGCAUCA
B14: chr5:37680062:37680063:+_ENSMUSG00000029121_ENSMUST00000031004|mus_hu|mus_mus_mus_hu_False|58_78 (ssRNA)
RNA: GGGAGUUCUACAGUCCGACGAUCUUUGGGUGUAGCUGGUACCUCGUACACAGGACCAUCGUACAUGCCCCUGGAAACACUAUGCAAUCCAAAAACCUUAUUCCUGAUUUUGACGCGCUGGUACAGGUGCUCCGGGAACGCCUUCAACAGAGGAUUGAGCAUCA
B15: chr7:125879632:125879633:+_ENSMUSG00000033904_ENSMUST00000106557|mus_hu|motif|central (ssRNA)
RNA: GGGAGUUCUACAGUCCGACGAUCGCAAUAUUCUUAUCCGGAAAUCUGGAUUUAUUAUUAUAUAGCCCUUUAUUCUCUCCGGAAUCAAGCAUGCUAGAAAAAACAGACUAUGAAGAACAAAAUAUACAGACUAAAUAGAAAAUACAACAGAGGAUUGAGCAUCA
B16: chrX:71549762:71549763:+_ENSMUSG00000019087_ENSMUST00000019231|mus_mus|mus_mus_mus_hu_False|88_88 (ssRNA)
RNA: GGGAGUUCUACAGUCCGACGAUCAAACCCGUGUACUUCUUAUUGUUACAUCACCCCCACCAGAAAACGAUAACGACAGCCAAGCAGGACAGACAGUUAAGUAGUACUUCCACACUCCCAAACUCAGGGAGCCCUAUAACCUUACAACAGAGGAUUGAGCAUCA
B17: chr7:31081878:31081879:+_ENSMUSG00000013921_ENSMUST00000014065|mus_hu|FALSE|FALSE (ssRNA)
RNA: GGGAGUUCUACAGUCCGACGAUCGAUGGUGGUCUGAGGGUCAAACAGGAUCUCCUGGCACGCCGGGUCAUUGGGAUCGAAGAAGGUGAAAGCGUAGUCCUUAGGGAGGGGGGCAGGUGCCGAGGGGUGCACAACAGGCUUCUGCAACAGAGGAUUGAGCAUCA
B18: chr3:108394432:108394433:+_ENSMUSG00000040389_ENSMUST00000051145|mus_hu|FALSE|FALSE (ssRNA)
RNA: GGGAGUUCUACAGUCCGACGAUCAGGAGAACGCGGCUGGGAGGCCGGCGGCCAGGGCCCCGAAGCGGCCGGCUCCGGGCUGCGGCAGGAGCACGACGGCGGCGGUCUGGGUUUGGCGUCGGUCCUCCCUCCUACCGCCCGCGCCAACAGAGGAUUGAGCAUCA
B19: chr13:31722580:31722581:-_ENSG00000120694_ENST00000320027|hu_mus|motif|central (ssRNA)
RNA: GGGAGUUCUACAGUCCGACGAUCCGAGUCGUGGUUCCAGACCAGAGAUAUUGGAAAAGGAACUGCAUCGGUGACAGAGAACUCUCGGACUUUAAAUGCCGGAGAAAGAAUUGCACACUGCAGUGCACAGCCUCUGGCCACAGCCAACAGAGGAUUGAGCAUCA
B20: chr5:122939345:122939346:-_ENSMUSG00000029467_ENSMUST00000031423|mus_hu|FALSE|FALSE (ssRNA)
RNA: GGGAGUUCUACAGUCCGACGAUCCUUUCUGUCCUGUCGAUACACUUUGCCCAUUUCAGGCUCAUAUUCCUUAAGGGCUUCGAUGGCAUUUUCAGCAUUUCUUUCCUGCCAUACACCCACAAUUGCAUUGGCUACUAAUAUGAGCAACAGAGGAUUGAGCAUCA
B21: chr7:36537692:36537693:-_ENSMUSG00000043671_ENSMUST00000051377|mus_mus|FALSE|FALSE (ssRNA)
RNA: GGGAGUUCUACAGUCCGACGAUCCAAUUUCUUUUCCAACUUCACAUCUUCUUUUGGUGAUGGAAAAUCCUCAGAAACUUCUAUGGGUUUUGUCUCUUUUCUUUGCCGGAUGUACAUCAUGAUGUCAAAGACUCAUACGCAUUGCAACAGAGGAUUGAGCAUCA
B22: chr1:107181519:107181520:-_ENSMUSG00000047496_ENSMUST00000058688|mus_mus|FALSE|FALSE (ssRNA)
RNA: GGGAGUUCUACAGUCCGACGAUCUCACCACUCUGGAUCCCUCUUCUCAAGCUCACAGGGCAUCGAGCAUUCACAAAUGUGCUAAUUUCUGAAUCUGUCACGCGUCCCUUUCACCCCCUUCUGCGUGUUGACAUCAAGUGGAAACAACAGAGGAUUGAGCAUCA

The other results are listed elsewhere or left out.

This assay concerns the target T1, UNK ZnF1-3. The assay is described as follows: nsRBNS (natural sequence RNA bind-n-seq); RBNS binding buffer (assumed for nsRBNS): 25 mM Tris pH 7.5, 150 mM KCl, 3 mM MgCl2, 0.01% Triton X-100, 500 ug/ml BSA, 20 U/ml SUPERase-In, 4 C; UNK is unkempt and MSI1 is Musashi-1; names of the RNAs are library labels; protein concentration not given here; high values mean tight binding.
On to B1, for which the binding signal is 1.4 enrichment R.

As for B2, the binding signal turned out to be 1.84 enrichment R.

In turn, B3 returned a binding signal of 1.58 enrichment R.

Molecule B4 came in with a binding signal of 1.38 enrichment R.

The molecule B5 yielded a binding signal of 3.05 enrichment R.

B6 displayed a binding signal of 1.14 enrichment R.

Regarding B7, the binding signal is 1.17 enrichment R.

Molecule B8 yielded a binding signal of 0.501 enrichment R.

B9: the binding signal was 0.819 enrichment R.

Regarding B10, the binding signal worked out at 0.582 enrichment R.

B11 yielded a binding signal of 0.61 enrichment R.

Consider B12, for which the binding signal is 0.897 enrichment R.

Molecule B13 showed a binding signal of 0.753 enrichment R.

With B14, the binding signal is 0.608 enrichment R.

As for B15, the binding signal was 1.67 enrichment R.

In turn, B16 had a binding signal of 1.84 enrichment R.

Molecule B17 showed a binding signal of 1.79 enrichment R.

As to B18, the binding signal was 0.654 enrichment R.

B19: the binding signal came out at 0.858 enrichment R.

B20 registered a binding signal of 0.626 enrichment R.

B21 gave a binding signal of 0.49 enrichment R.

Molecule B22 came in with a binding signal of 1.69 enrichment R.

(Values after paper PMC12136788.)
